# In PubChem BioAssay AID504832 (National Center for Advancing Translational Sciences (NCATS), 2011):
# The whole screen tested about 310,000 compounds, of which about 18,000 (5.8%) were called active. Inconclusive means that the source gave no clear call. Such entries were picked first, then a sample of the others. Calls come from the whole dose curve; as a rule, active = well fitted inhibition curve with a large enough effect; inconclusive = small, poorly fitted or top-dose-only effect, or another doubt; inactive = no such curve, though single readings can be large or run the other way. No potency is given beside an inconclusive call; the fits are too rough.
# Assay: Primary qHTS for delayed death inhibitors of the malarial parasite plastid, 48 hour incubation
# Conditions: P. falciparum luciferase growth in erythrocytes; series mostly up to 28.7 µM; activity change, negative = inhibition: at the top concentration
# How it was run: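 Compounds are pin-transferred into medium, infected erythrocytes (2% hematocrit, 0.1% parasitemia final) are added, and plates sit one parasite generation at 37 C in 5% CO2. Detection reagent is then added and luminescence measured.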
# % is set by controls: 0 for no effect and ±100 for the full control effect; potency is the fitted concentration of half-maximal effect; tags give direction and shape of the fitted curve.
Structure (SMILES),Potency,"activity change, negative = inhibition"
CCOc1ccc(CCNC(=O)c2cccc(S(=O)(=O)N3CCOCC3)c2)cc1OCC,"inconclusive [inhibitor, single point]",
COc1ccc(S(N)(=O)=O)cc1C(=O)NC1CCCc2ccccc21 (stereo not drawn),,inactive: 15.3%
CC(C)C(=O)O/N=C(\N)c1ccc(Oc2ccc(Cl)cc2)c([N+](=O)[O-])c1,,inactive: 8.12%
Cc1ccc(C)c2c1cc(C)c1nnc(SCc3ccccn3)n12,"inconclusive [inhibitor, single point]",
CC1CCN(Cc2c(C(=O)N3CCc4ccccc4C3)nc3ccc(Cl)cn23)CC1,"inconclusive [inhibitor, single point]",
CCCSc1nsc(NC(=O)Nc2ccc(F)cc2F)n1,"inconclusive [inhibitor, single point]",
CCC(=O)Nc1cccc(-c2nnc(-c3cccc(NC(=O)CC)c3)o2)c1,active: 5.22 µM,
CCN1CCN(c2ccc(S(=O)(=O)N3CCCCC3)cc2NC(=O)c2cccc(OC(F)F)c2)CC1,"inconclusive [inhibitor, single point]",
O=C(CN1C(=O)NC2(CCCC2)C1=O)NCCN1C(=O)S/C(=C\c2ccccc2F)C1=O,"inconclusive [inhibitor, single point]",
CC(C)(C)c1ccc(C(=O)N2CCNC(=O)C2CC(=O)Nc2ccc(F)cc2)cc1 (stereo not drawn),"inconclusive [inhibitor, single point]",
O=C(CCCN1CCC(n2c(=O)[nH]c3ccccc32)CC1)c1ccc(F)cc1,active: 0.809 µM,
Cc1ccn2c(=O)nc(SCC(=O)N3CCN(c4ccccc4)CC3)nc2c1,"inconclusive [inhibitor, partial curve, poor fit]",
O=C(O)c1cc(-c2ccc(/C=C3\NC(=O)N(c4ccc(Cl)cc4)C3=O)o2)ccc1Cl,,inactive: -0.251%
Clc1ccc(CN=C(Nc2ccccc2)NC2CCCCC2)cc1,active: 9.28 µM,
COc1ccc(/C=C2\Sc3ccc(C(=O)NC4CC4)cc3N(C)C2=O)cc1OC,"inconclusive [inhibitor, single point]",
COc1ccc(NC(C)C(=O)N/N=C/c2ccccc2OCc2cccc(Br)c2)cc1 (stereo not drawn),"inconclusive [inhibitor, single point]",
Cc1noc(/C=C/N(C)C)c1S(=O)(=O)N1CCCC(C(=O)Nc2ccc(F)cc2F)C1 (stereo not drawn),"inconclusive [inhibitor, partial curve, poor fit]",
COc1ccc(C2=NN(c3ccc(C=O)cc3)C(c3ccccc3)C2)cc1 (stereo not drawn),"inconclusive [inhibitor, partial curve]",
